Laboratory results published in PubChem BioAssay (NCATS).
The inconclusive results got no clear call from the source; some entries with a clear call stand among them for comparison. For some assays here: No potency is given beside an inconclusive call; the fits are too rough. The source made the active and inactive calls. Calls follow the shape of the dose curve; as a rule, active = well fitted curve in the direction sought with a large enough effect; inconclusive = small, poorly fitted or top-dose-only effect, or another doubt; inactive = no such curve, though single readings can be large; an effect the other way counts as inactive or inconclusive.

What was measured:
[1] = test system: Zika virus NS2B-NS3 protease (linked construct); test: Primary screen NINDS Rhodamine qHTS for Zika virus inhibitors (AID 1347160); also: nearly all actives have a fitted effect of over 55% in size
How it was run: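 Kinetic fluorescence (Ex 480 nm, Em 540 nm) over 15 min with 1.5 microM Rhodamine110 peptide and 25 nM linked protease.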

[2] = Primary qHTS for inhibitors of nuclear receptor binding SET domain protein 2 (NSD2) in an isogenic RCH-ACV NSD2 p.E1099K mutant (9B) (AID 1645876); conditions: activity change, negative = viability loss: at 44.9 µM (top of the series) unless noted; also: nearly all actives have a fitted effect of over 70% in size; also: potency is read from the fitted curve at half-maximal effect
[3] = Primary qHTS for inhibitors of nuclear receptor binding SET domain protein 2 (NSD2) in an RCH-ACV wild type WT cells (2C) (AID 1645877); conditions: activity change, negative = cell killing: at 44.9 µM (top of the series) unless noted; also: potency is read from the fitted curve at half-maximal effect; nearly all actives have a fitted effect of over 70% in size
[4] = target: Glutathione peroxidase 1 (Homo sapiens) (UniProt P07203); test: Primary qHTS Assay for Inhibitors of Recombinant Selenoprotein Glutathione Peroxidase 1 (GPX1) (AID 1845191); also: nearly all actives have a fitted effect of over 65% in size
Sequence of UniProt P07203 (P07203 whole entry, looked up): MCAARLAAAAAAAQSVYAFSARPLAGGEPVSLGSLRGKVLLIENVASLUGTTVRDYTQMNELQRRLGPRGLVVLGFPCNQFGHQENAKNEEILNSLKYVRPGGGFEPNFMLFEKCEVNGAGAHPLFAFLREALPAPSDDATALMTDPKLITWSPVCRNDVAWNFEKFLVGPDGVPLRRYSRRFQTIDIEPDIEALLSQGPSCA
How it was run: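 10 nM GPX1 + cpd, 30 min RT; start w/ 1 mM GSH, 0.5 mM cumene hydroperoxide, 0.5 mM NADPH, 100 nM GR, 0.01% BSA; buffer 50 mM Tris-HCl pH 7.5, 2 mM EDTA, 150 mM NaCl; Fl 340/450, 0 & 15 min.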

PA-1 = test: Primary qHTS to identify gynecologic anti-cancer compounds using libraries of approved drugs and bioactive compounds (AID 1345084); conditions: Gynecologic cancer cell panel viability, ATPlite luminescence, 48 h; series mostly up to 57.5 µM; also: nearly all actives have a fitted effect of over 55% in size
How it was run: (§1)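 In this quantitative HTS, cell killing is estimated from loss of ATP-dependent luciferase light. Cells see five compound concentrations over a 48 h exposure.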

SKOV3 = test: as above; conditions: Gynecologic cancer cell panel viability, ATPlite luminescence, 48 h; series mostly up to 57.5 µM
How it was run: as §1

[5] = Primary redox qHTS assay for identification of artifact compounds. (AID 1845223); also: potency is read from the fitted curve at half-maximal effect
How it was run: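 Amplex Red (25 uM) and HRP (250 mU/mL) in HBSS, with compounds for 15 min, then 250 uM DTT for 30 min, room temperature, dark. Fluorescence 525/598 nm read; normalized to DMSO and 10 uM DA3003; Hill fit.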
Tags tell the direction and shape of the fitted curve.

| Structure (SMILES) | Potency [1] | Potency [2] | Potency [3] | Potency [4] | Potency (PA-1) | Potency (SKOV3) | Potency [5] |
| --- | --- | --- | --- | --- | --- | --- | --- |
| CC1(C)CC[C@]2(C(=O)O[C@@H]3O[C@H](CO)[C@@H](O)[C@H](O)[C@H]3O)[C@H](O)C[C@]3(C)C(=CCC4[C@@]5(C)CC[C@H](O[C@@H]6OC[C@@H](O)[C@H](O)[C@H]6O)[C@@](C)(C(=O)O)C5CC[C@]43C)[C@@H]2C1 (stereo partly specified) | inactive | inconclusive [inhibitor, single point] | inconclusive [inhibitor, single point] | inactive | inactive | inactive |  |
| C=C1CC[C@@]2(OC1)O[C@H]1CC3[C@@H]4CC=C5C[C@@H](O)C[C@@H](O[C@@H]6OC[C@H](O)[C@H](O)[C@H]6O[C@@H]6O[C@@H](C)[C@H](O)[C@@H](O)[C@H]6O)[C@]5(C)C4CC[C@]3(C)[C@H]1[C@@H]2C (stereo partly specified) |  | inactive | inconclusive [inhibitor, single point] |  | inactive | inactive | inconclusive [activator, partial curve, poor fit] |
